Data: article PMC7271317
These are yes or no findings as the source states them, for the method shown. Binding seen in cells or lysates may run through a third protein. Some binding calls cover weakened binding; strength is not graded here. For some of these results: Sequences can lack the tags named with a protein.

The chains behind the UniProt entries cited, without tags or fusion partners.
UniProt Q96RY7: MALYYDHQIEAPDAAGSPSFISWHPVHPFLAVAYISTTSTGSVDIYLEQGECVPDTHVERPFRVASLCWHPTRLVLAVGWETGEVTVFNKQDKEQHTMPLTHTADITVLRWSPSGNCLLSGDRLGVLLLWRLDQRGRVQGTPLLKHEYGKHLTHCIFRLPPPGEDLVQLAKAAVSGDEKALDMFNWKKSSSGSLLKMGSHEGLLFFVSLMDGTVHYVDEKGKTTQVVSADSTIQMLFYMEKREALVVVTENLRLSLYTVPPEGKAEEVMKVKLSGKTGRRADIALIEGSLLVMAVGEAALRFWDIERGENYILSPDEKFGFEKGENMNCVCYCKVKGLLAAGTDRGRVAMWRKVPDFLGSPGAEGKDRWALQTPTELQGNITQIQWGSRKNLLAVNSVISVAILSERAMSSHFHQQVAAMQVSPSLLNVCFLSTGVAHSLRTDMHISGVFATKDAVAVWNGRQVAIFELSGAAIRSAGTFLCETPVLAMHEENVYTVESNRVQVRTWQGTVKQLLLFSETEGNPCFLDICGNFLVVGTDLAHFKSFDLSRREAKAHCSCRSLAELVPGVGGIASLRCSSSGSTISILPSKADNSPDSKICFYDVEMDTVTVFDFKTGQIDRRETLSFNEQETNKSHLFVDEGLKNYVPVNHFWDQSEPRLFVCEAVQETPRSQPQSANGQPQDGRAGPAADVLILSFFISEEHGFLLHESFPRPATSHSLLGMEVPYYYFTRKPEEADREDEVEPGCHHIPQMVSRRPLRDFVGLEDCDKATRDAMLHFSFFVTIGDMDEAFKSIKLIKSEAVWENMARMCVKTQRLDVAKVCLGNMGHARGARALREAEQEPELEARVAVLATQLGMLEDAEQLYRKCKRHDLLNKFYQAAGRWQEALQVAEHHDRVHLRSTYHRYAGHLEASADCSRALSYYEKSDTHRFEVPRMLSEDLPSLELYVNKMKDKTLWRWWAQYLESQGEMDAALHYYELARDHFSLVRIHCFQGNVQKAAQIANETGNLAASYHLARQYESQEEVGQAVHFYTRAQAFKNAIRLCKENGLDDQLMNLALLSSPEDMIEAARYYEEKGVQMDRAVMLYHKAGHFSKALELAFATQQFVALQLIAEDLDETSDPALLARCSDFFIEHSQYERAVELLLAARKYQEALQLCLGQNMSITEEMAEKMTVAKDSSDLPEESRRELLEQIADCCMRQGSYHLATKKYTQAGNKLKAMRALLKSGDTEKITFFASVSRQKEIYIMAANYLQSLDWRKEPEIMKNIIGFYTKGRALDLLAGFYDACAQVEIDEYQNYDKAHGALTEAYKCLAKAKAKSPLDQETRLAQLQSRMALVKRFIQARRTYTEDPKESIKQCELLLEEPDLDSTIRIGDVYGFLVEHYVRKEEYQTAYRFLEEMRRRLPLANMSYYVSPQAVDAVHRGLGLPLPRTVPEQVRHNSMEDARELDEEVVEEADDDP

T1: motor (Mot) domain of HSET fused to GFP (aa 145-673) (human) (UniProt Q9BW19)
T1 sequence: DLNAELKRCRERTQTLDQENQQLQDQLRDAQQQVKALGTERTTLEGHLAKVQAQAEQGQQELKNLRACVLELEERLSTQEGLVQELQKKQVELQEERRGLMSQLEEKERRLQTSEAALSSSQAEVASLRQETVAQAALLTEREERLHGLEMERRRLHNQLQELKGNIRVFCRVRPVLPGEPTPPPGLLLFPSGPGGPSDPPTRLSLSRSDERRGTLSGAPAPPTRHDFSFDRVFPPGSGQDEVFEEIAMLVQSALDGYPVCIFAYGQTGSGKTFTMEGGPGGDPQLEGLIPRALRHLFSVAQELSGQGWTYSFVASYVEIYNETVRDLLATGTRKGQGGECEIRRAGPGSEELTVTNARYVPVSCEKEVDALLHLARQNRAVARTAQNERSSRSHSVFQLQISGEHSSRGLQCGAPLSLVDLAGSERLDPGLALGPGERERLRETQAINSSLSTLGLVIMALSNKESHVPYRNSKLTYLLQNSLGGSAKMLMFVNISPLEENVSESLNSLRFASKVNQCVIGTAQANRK

T2: recombinant full-length (FL) GFP-HSET (human) (UniProt Q9BW19)
T2 sequence: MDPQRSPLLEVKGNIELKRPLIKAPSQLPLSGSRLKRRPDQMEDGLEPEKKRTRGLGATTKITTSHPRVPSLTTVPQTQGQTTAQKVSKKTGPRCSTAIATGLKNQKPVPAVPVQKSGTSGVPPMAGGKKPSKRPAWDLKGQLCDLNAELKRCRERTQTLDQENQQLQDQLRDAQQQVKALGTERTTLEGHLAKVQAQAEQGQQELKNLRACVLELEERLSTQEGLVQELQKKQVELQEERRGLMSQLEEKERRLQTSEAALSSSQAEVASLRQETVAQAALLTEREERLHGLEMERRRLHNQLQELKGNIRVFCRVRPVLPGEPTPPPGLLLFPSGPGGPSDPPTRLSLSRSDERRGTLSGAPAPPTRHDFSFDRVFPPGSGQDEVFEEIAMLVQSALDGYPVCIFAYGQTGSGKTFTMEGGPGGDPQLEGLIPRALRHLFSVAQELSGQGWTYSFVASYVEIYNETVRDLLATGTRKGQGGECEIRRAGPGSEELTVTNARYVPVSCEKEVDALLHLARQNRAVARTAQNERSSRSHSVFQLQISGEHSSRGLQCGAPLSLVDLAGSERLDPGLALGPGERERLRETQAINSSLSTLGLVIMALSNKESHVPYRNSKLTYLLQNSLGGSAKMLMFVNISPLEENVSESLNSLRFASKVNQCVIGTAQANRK

T3: HSET/KIFC1 (endogenous, MDA-MB-231) (human (endogenous in MDA-MB-231)) (UniProt Q9BW19)
T3 sequence: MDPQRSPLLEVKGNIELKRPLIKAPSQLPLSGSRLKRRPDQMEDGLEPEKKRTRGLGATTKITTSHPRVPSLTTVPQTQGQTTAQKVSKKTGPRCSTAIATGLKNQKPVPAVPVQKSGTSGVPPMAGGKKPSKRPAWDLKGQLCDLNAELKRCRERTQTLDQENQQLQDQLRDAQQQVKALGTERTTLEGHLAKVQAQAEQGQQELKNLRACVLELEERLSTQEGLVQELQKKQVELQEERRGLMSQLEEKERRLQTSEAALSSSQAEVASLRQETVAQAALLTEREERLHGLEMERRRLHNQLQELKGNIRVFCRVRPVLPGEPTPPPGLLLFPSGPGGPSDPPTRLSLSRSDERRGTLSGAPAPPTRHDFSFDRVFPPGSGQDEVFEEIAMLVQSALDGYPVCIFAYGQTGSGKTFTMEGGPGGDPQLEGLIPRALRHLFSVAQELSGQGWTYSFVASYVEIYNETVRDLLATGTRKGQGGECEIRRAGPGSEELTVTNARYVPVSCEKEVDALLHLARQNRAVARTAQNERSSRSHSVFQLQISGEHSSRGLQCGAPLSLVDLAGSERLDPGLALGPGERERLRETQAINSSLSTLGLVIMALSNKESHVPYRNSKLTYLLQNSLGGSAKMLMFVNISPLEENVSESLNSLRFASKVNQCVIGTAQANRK


Key:
[1] = molecular target: T1, motor (Mot) domain of HSET fused to GFP (aa 145-673) (human); assay: pull-down; purified GFP-HSET constructs on GFP-Trap beads incubated with 300 μl mitotic (nocodazole) MDA-MB-231 cell lysate (0.2% NP-40) for 1 h at RT, five washes, immunoblot; GFP-Trap beads alone as control; only the target purified
[2] = molecular target: T2, recombinant full-length (FL) GFP-HSET (human); assay: as above
[3] = molecular target: T3, HSET/KIFC1 (endogenous, MDA-MB-231) (human (endogenous in MDA-MB-231)); assay: co-IP; endogenous immunoprecipitation of HSET (KIFC1/HSET antibody, rabbit IgG as control) from mitotic (nocodazole) MDA-MB-231 cell lysate, overnight 4°C, protein G-PLUS agarose, washes with 0.2% NP-40, Western blot

| binding [1] | binding [2] | binding [3] | Molecule |
| --- | --- | --- | --- |
| no binding | – | – | IFT-A protein IFT140 (endogenous, MDA-MB-231) (from UniProt Q96RY7 1-1462) |
| binds | binds | – | IFT52 (endogenous, MDA-MB-231) (protein, UniProt Q9Y366 1-437) MEKELRSTILFNAYKKEIFTTNNGYKSMQKKLRSNWKIQSLKDEITSEKLNGVKLWITAGPREKFTAAEFEILKKYLDTGGDVFVMLGEGGESRFDTNINFLLEEYGIMVNNDAVVRNVYHKYFHPKEALVSSGVLNREISRAAGKAVPGIIDEESSGNNAQALTFVYPFGATLSVMKPAVAVLSTGSVCFPLNRPILAFYHSKNQGGKLAVLGSCHMFSDQYLDKEENSKIMDVVFQWLTTGDIHLNQIDAEDPEISDYMMLPYTATLSKRNRECLQESDEIPRDFTTLFDLSIFQLDTTSFHSVIEAHEQLNVKHEPLQLIQPQFETPLPTLQPAVFPPSFRELPPPPLELFDLDETFSSEKARLAQITNKCTEEDLEFYVRKCGDILGVTSKLPKDQQDAKHILEHVFFQVVEFKKLNQEHDIDTSETAFQNNF |
| no binding | – | – | IFT27 (endogenous, MDA-MB-231) (protein, UniProt Q9BW83 1-186) MVKLAAKCILAGDPAVGKTALAQIFRSDGAHFQKSYTLTTGMDLVVKTVPVPDTGDSVELFIFDSAGKELFSEMLDKLWESPNVLCLVYDVTNEESFNNCSKWLEKARSQAPGISLPGVLVGNKTDLAGRRAVDSAEARAWALGQGLECFETSVKEMENFEAPFHCLAKQFHQLYREKVEVFRALA |
| binds | binds | binds | IFT88 (endogenous, MDA-MB-231) (protein, UniProt Q13099 1-824) MMQNVHLAPETDEDDLYSGYNDYNPIYDIEELENDAAFQQAVRTSHGRRPPITAKISSTAVTRPIATGYGSKTSLASSIGRPMTGAIQDGVTRPMTAVRAAGFTKAALRGSAFDPLSQSRGPASPLEAKKKDSPEEKIKQLEKEVNELVEESCIANSCGDLKLALEKAKDAGRKERVLVRQREQVTTPENINLDLTYSVLFNLASQYSVNEMYAEALNTYQVIVKNKMFSNAGILKMNMGNIYLKQRNYSKAIKFYRMALDQVPSVNKQMRIKIMQNIGVTFIQAGQYSDAINSYEHIMSMAPNLKAGYNLTICYFAIGDREKMKKAFQKLITVPLEIDEDKYISPSDDPHTNLVTEAIKNDHLRQMERERKAMAEKYIMTSAKLIAPVIETSFAAGYDWCVEVVKASQYVELANDLEINKAVTYLRQKDYNQAVEILKVLEKKDSRVKSAAATNLSALYYMGKDFAQASSYADIAVNSDRYNPAALTNKGNTVFANGDYEKAAEFYKEALRNDSSCTEALYNIGLTYEKLNRLDEALDCFLKLHAILRNSAEVLYQIANIYELMENPSQAIEWLMQVVSVIPTDPQVLSKLGELYDREGDKSQAFQYYYESYRYFPCNIEVIEWLGAYYIDTQFWEKAIQYFERASLIQPTQVKWQLMVASCFRRSGNYQKALDTYKDTHRKFPENVECLRFLVRLCTDLGLKDAQEYARKLKRLEKMKEIREQRIKSGRDGSGGSRGKREGSASGDSGQNYSASSKGERLSARLRALPGTNEPYESSSNKEIDASYVDPLGPQIERPKTAAKKRIDEDDFADEELGDDLLPE |
